# Source: PubChem BioAssay (Tox21)
# “And” between values parts separate entries of the source, which are not always exact repeats. Equal entries are not always repeated. Inconclusive means that the source gave no clear call. Such entries were picked first, then a sample of the others. For some assays here: Potencies beside an inconclusive call are fits to weak or partial responses and may not hold up. The source made the active and inactive calls. Unless noted, the call rests on the fitted dose curve; in most records, active means well fitted curve in the direction sought with a large enough effect in the repeat runs; inconclusive means weak or mixed curves; inactive means no such curve, though single readings can be large; an effect the other way counts as inactive or inconclusive.
# Experiments:
# [1] = target: Thyrotropin receptor (Homo sapiens) (UniProt P16473); assay: qHTS assay to identify small molecule antagonists of the thyroid stimulating hormone receptor (TSHR) signaling pathway (AID 1259385; calls by dose curve; further: nearly all actives have a fitted effect of over 20% in size; further: potency means the concentration at half of the fitted maximal effect; on activity change, negative = inhibition: on the % scale 0 is the no-effect control and ±100 the full control effect); details: TSHR-HEK293 cAMP HTRF, TSH-stimulated antagonist mode; activity change, negative = inhibition: at 92.4 µM (top of the series) unless noted
# Outline: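 TSHR-HEK293 cells were plated and held 18 h at 37C/5% CO2, then given compound plus Ro20-1724 and stimulated with TSH at 1.5 ng/mL final. After 30 min at room temperature, cAMP was detected with cAMP-d2/anti-cAMP-cryptate (1 h) by fluorescence.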
# [2] = target: Progesterone receptor (Homo sapiens) (UniProt P06401); assay: qHTS assay to identify small molecule antagonists of the progesterone receptor (PR) signaling pathway (AID 1346795; active means well fitted inhibition curve with a large enough effect in the signal ratio in the repeat runs, not every such curve was filed as active; inconclusive means weak or mixed curves; the % refers to the signal ratio; further: potency means the concentration at half of the fitted maximal effect; on activity change, negative = inhibition: on the % scale 0 is the no-effect control and ±100 the full control effect); details: PR-UAS-bla HEK293T, beta-lactamase FRET ratio, 16 h; activity change, negative = inhibition: at 92.4 µM (top of the series) unless noted
# Outline: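 Fluorescence intensity measured 2 hr after adding beta-lactamase FRET substrate to PR-UAS-bla HEK293T cells that had been co-treated 16 hr with compound and 1 nM R5020 (final concentration) in 2% charcoal-stripped FBS.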
# [3] = qHTS assay to identify small molecule antagonists of the TGF-beta/Smad signaling pathway - cell viability counter screen (AID 1346824); further: potency means the concentration at half of the fitted maximal effect; nearly all actives have a fitted effect of over 50% in size
# Outline: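 SBE-bla HEK 293T cells were plated overnight at 37 C, then given compounds in DMSO plus TGF-beta1 (added as 0.25 ng/mL solution) for 5 hr. After the bla read, CellTiter-Glo was added to the same wells and luminescence read after 30 min at room temperature.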
# [4] = qHTS assay to identify small molecule agonists of the TGF-beta/Smad signaling pathway - cell viability counter screen (AID 1346829); further: top concentration of the series differs between compounds; on the % scale 0 is the no-effect control and ±100 the full control effect; nearly all actives have a fitted effect of over 45% in size
# Outline: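 Cytotoxicity counter screen: CellTiter-Glo luminescence (30 min, room temperature) measured in the SBE-bla HEK 293T reporter wells after 5 hr compound treatment at 37 C and the 2 hr substrate step.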
# [5] = qHTS assay to identify small molecule antagonists of the TGF-beta/Smad signaling pathway (AID 1346924; active means well fitted inhibition curve with a large enough effect in the signal ratio in the repeat runs, not every such curve was filed as active; inconclusive means weak or mixed curves; the % refers to the signal ratio; further: potency means the concentration at half of the fitted maximal effect); details: SBE-bla HEK293T, TGF-beta/Smad reporter, beta-lactamase ratio; activity, negative = inhibition: at 76.8 µM (top of the series) unless noted
# Outline: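 Read-out was FRET-substrate fluorescence (405 nm excitation; 460 and 530 nm emission) after 2 h at room temperature. Before that, cells carrying a Smad-binding-element beta-lactamase reporter in HEK 293T had been stimulated 5 h at 37 C with TGF-beta1 (0.25 ng/mL addition solution) in the presence of test compound.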
# [6] = qHTS assay to identify small molecule agonists of the estrogen receptor alpha (ER-alpha) signaling pathway in the presence of an antagonist - cell viability counter screen (AID 1259386);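 further: cells exposed to compounds for 22 h at 37 °C before the viability read; nearly all actives have a fitted effect of over 30% in size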; further: potency means the concentration at half of the fitted maximal effect
# Outline: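 Read-out: CellTiter-Fluor fluorescence after 1hr reagent incubation, measured in the same wells as the luciferase readout. VM7Luc4E2 cells were exposed to 15 compound concentrations with 10.0nM ICI-182,780 for 22hr at 37C.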
# [7] = target: Progesterone receptor (Homo sapiens) (UniProt P06401); assay: qHTS assay to identify small molecule agonists of the progesterone receptor (PR) signaling pathway (AID 1346784; calls by dose curve; further: nearly all actives have a fitted effect of over 30% in size; further: potency means the concentration at half of the fitted maximal effect; on activation: on the % scale 0 is the no-effect control and ±100 the full control effect); details: PR-UAS-bla HEK293T, beta-lactamase FRET ratio, 16 h; activation: at 92.4 µM (top of the series) unless noted
# Outline: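 Fluorescence from LiveBLAzer B/G FRET substrate cleavage (2 hr, RT) reported PR activation in PR-UAS-bla HEK 293T cells treated 16 hr at 37C/5% CO2 with compounds; medium contained 2% charcoal-stripped FBS.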
# [8] = Human pregnane X receptor (PXR) small molecule agonists, qHTS cell viability counter screen (AID 1346977); further: nearly all actives have a fitted effect of over 50% in size; further: potency means the concentration at half of the fitted maximal effect
# Outline: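 Viability counter screen: CellTiter-Fluor signal in PXR-Luc HepG2 cells, 24hr compound exposure, 37C, 5% CO2.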
# [9] = Caspase-3/7 induction in CHO-K1 cells by small molecules, qHTS cell viability counter screen (AID 1346979); further: potency means the concentration at half of the fitted maximal effect; nearly all actives have a fitted effect of over 35% in size
# Outline: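 Viability readout by fluorescence (CellTiter-Fluor) on wild-type CHO-K1 cells exposed for 16hr at 37C and 5% CO2 to compounds delivered in DMSO; reagent incubated 1hr before reading.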
# [10] = qHTS assay to identify small molecule agonists of the progesterone receptor (PR) signaling pathway - cell viability counter screen (AID 1346799; calls by dose curve; further: nearly all actives have a fitted effect of over 45% in size; further: potency means the concentration at half of the fitted maximal effect)
# Outline: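 In parallel with the beta-lactamase readout, cytotoxicity toward PR-UAS-bla HEK293T cells was measured by CellTiter-Glo luminescence following 16 hr compound incubation in 2% charcoal-stripped FBS medium.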
# [11] = qHTS assay to identify small molecule antagonists of the progesterone receptor (PR) signaling pathway - cell viability counter screen (AID 1346798); further: potency means the concentration at half of the fitted maximal effect; nearly all actives have a fitted effect of over 50% in size
# Outline: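 CellTiter-Glo luminescence; PR-UAS-bla HEK293T, 3,000 cells/well; compound + R5020, 16 hr, 37C/5% CO2; 30 min RT before read.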
# [12] = Caspase-3/7 induction in HepG2 cells by small molecules, qHTS assay (AID 1346978); further: potency means the concentration at half of the fitted maximal effect; nearly all actives have a fitted effect of over 15% in size
# Outline: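 Wild-type HepG2 cells (2,000/well) were settled 5 h at 37 C, 5% CO2, then exposed to compounds in DMSO for 17 h. Caspase-3/7 activity was read by luminescence 30 min after adding Caspase-Glo 3/7 reagent at room temperature.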
# [13] = qHTS assay to identify small molecule agonists of the TGF-beta/Smad signaling pathway (AID 1346859; active means well fitted activation curve with a large enough effect in the signal ratio in the repeat runs, not every such curve was filed as active; inconclusive means weak or mixed curves; the % refers to the signal ratio; further: potency means the concentration at half of the fitted maximal effect); details: SBE-bla HEK293T, TGF-beta/Smad beta-lactamase reporter, 5 h; activation: at 76.8 µM (top of the series)
# Outline: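 After overnight seeding, SBE-bla HEK 293T cells are dosed with compounds in DMSO and kept 5 hr at 37 C, 5% CO2. LiveBLAzer-type FRET substrate is then applied for 2 hr at room temperature.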
# Tags describe the fitted curve by direction and shape or compound fluorescence and quenching.
# UniProt P06401, sequence (P06401 whole entry, looked up): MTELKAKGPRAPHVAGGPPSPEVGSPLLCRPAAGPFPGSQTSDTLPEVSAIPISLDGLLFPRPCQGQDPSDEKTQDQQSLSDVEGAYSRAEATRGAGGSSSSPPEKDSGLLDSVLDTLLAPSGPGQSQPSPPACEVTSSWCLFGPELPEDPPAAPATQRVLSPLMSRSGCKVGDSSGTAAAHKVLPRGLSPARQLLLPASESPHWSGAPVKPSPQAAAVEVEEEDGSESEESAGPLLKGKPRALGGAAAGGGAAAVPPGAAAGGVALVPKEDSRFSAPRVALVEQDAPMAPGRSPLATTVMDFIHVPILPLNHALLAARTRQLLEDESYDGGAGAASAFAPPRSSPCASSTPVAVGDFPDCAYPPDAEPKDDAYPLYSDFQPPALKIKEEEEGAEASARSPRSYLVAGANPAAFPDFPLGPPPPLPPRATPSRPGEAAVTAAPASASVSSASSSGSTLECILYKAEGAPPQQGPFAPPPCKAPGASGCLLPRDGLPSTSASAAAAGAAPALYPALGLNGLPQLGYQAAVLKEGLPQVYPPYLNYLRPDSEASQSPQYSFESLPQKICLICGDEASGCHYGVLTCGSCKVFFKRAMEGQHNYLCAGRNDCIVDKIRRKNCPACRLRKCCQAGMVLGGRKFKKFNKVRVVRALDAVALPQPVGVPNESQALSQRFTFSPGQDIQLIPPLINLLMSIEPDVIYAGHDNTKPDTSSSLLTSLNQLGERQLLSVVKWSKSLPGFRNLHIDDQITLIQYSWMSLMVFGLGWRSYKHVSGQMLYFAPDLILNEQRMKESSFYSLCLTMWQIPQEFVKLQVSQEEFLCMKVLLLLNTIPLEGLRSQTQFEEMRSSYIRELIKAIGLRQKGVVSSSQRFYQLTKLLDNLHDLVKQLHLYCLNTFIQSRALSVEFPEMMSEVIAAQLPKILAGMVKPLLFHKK
# UniProt P16473, sequence (P16473 whole entry, looked up): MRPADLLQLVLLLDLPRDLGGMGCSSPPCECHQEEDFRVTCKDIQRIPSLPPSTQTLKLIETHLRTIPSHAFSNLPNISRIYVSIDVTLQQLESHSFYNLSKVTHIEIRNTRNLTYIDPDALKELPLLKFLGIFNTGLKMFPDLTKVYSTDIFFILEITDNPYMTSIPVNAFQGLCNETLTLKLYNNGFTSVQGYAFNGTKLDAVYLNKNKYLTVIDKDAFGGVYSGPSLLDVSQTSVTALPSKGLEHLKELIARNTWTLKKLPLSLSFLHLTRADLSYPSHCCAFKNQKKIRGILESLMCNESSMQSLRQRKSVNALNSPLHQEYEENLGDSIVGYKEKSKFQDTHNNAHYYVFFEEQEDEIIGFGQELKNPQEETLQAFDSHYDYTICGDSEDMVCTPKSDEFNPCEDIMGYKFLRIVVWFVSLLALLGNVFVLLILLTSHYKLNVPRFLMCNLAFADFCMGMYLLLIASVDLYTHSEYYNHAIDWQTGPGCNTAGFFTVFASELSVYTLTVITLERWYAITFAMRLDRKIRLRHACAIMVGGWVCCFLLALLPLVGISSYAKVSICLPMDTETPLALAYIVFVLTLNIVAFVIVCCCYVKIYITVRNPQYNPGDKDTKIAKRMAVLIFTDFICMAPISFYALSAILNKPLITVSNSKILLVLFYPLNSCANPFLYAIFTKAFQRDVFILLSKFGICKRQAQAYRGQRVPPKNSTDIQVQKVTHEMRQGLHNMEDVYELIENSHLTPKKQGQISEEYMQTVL
smiles,measurement,setting,value
Oc1cccc(Cl)c1,"activity change, negative = inhibition",[1],inconclusive: 3.38%
same,Potency,[2],inactive
same,Potency,[3],"inconclusive: 60.9 µM [cytotoxic, single point]"
same,Potency,[4],inactive
same,"activity, negative = inhibition",[5],inconclusive: -38%
COP(=O)(OC)OC(Br)C(Cl)(Cl)Br (configuration not stated),Potency,[6],"inconclusive: 77 µM [cytotoxic, single point]"
same,activation,[7],inconclusive: 24.7%
same,Potency,[2],inactive
same,"activity, negative = inhibition",[5],inconclusive: 7.14% and inconclusive: -2.42%
same,Potency,[8],inactive
same,Potency,[9],"active: 61.2 µM and inconclusive: 68.6 µM [cytotoxic, single point]"
O=C(CCl)CCl,"activity change, negative = inhibition",[1],inconclusive: 11.5%
same,"activity change, negative = inhibition",[2],inconclusive: 0.408%
same,"activity, negative = inhibition",[5],inconclusive: -9.78% and inconclusive: -10.7%
NC(=O)O,Potency,[6],inactive
Cc1ccc(N)c(N)c1,Potency,[6],"inconclusive: 68.8 µM [cytotoxic, single point]"
same,Potency,[2],"inconclusive: 68.8 µM [rising, single point]"
same,"activity change, negative = inhibition",[2],inconclusive: -48.5%
same,Potency,[10],inactive
same,Potency,[9],"inconclusive: 68.8 µM [cytotoxic, single point] and inconclusive: 68.6 µM [cytotoxic, single point]"
CN(C)C(=S)SSC(=S)N(C)C,Potency,[6],active: 30.2 µM and active: 30.6 µM and inconclusive: 33.5 µM [cytotoxic]
same,Potency,[7],"inconclusive: 0.422 µM [cytotoxic, full curve]"
same,activation,[7],inconclusive: -1.65%
same,Potency,[11],active: 170 nM and active: 386 nM and active: 266 nM
same,Potency,[10],"inconclusive: 151 nM [cytotoxic, full curve] and active: 344 nM and active: 298 nM"
same,Potency,[3],active: 19.2 µM and active: 43.6 µM and active: 26.8 µM
same,Potency,[12],active: 851 nM and active: 864 nM and active: 668 nM
CC1(C)[C@H](/C=C2\CCSC2=O)[C@@H]1C(=O)OCc1coc(Cc2ccccc2)c1,Potency,[1],inconclusive: 24.3 µM
same,Potency,[2],"inconclusive: 21.7 µM [falling, partial curve]"
same,Potency,[11],"inconclusive: 48.6 µM [rising, partial curve, poor fit]"
same,Potency,[10],"inconclusive: 21.7 µM [rising, full curve]"
same,"activity, negative = inhibition",[5],inconclusive: -10.4%
CCOC(=O)c1cn2nc(OP(=S)(OCC)OCC)cc2nc1C,Potency,[1],"inconclusive: 68.6 µM [falling, single point]"
same,Potency,[2],inconclusive: 9.69 µM [full curve]
same,Potency,[11],"inconclusive: 77 µM [cytotoxic, single point]"
same,Potency,[10],"inconclusive: 21.7 µM [rising, partial curve]"
same,Potency,[13],"inconclusive: 17.4 µM [rising, partial curve]"
c1ccc2c(c1)cc1ccc3cccc4ccc2c1c34,Potency,[6],"inconclusive: 9.88 µM [rising, full curve]"
same,Potency,[7],"inconclusive: 44.1 µM [fluorescent, partial curve]"
same,Potency,[2],"inconclusive: 49.5 µM [rising, partial curve]"
same,Potency,[11],inconclusive: 31.2 µM [cytotoxic]
same,Potency,[13],"inconclusive: 49.9 µM [fluorescent, partial curve]"
same,Potency,[5],"inconclusive: 44.5 µM [fluorescent, partial curve]"
same,Potency,[9],"inconclusive: 49.5 µM [rising, partial curve]"
CC(=O)C(Cl)(Cl)Cl,Potency,[1],"inconclusive: 23.5 µM [falling, full curve]"
same,Potency,[10],"inconclusive: 2.35 µM [rising, full curve]"
same,"activity, negative = inhibition",[5],inconclusive: -18.3%
CC1(C)CC(=O)CC(C)(C)N1[O],Potency,[1],"inconclusive: 0.611 µM [falling, single point]"
same,"activity change, negative = inhibition",[2],inconclusive: 9.56%
[CH3][Hg][Cl],Potency,[1],active: 17.2 µM
same,Potency,[7],"inconclusive: 27.2 µM [fluorescent, single point]"
same,"activity change, negative = inhibition",[2],inconclusive: 14.5%
same,Potency,[10],"inconclusive: 24.3 µM [cytotoxic, single point]"
same,Potency,[13],"inconclusive: 24.5 µM [fluorescent, partial curve]"
same,"activity, negative = inhibition",[5],inconclusive: -18.9%
same,Potency,[8],"inconclusive: 68.4 µM [cytotoxic, single point]"
CC(=O)O[C@H]1CC[C@@]2(C)C(=CC[C@@H]3[C@@H]2CC[C@]2(C)C(=O)CC[C@@H]32)C1,Potency,[1],inconclusive: 61.1 µM
same,activation,[7],inconclusive: -12.4%
same,Potency,[2],inconclusive: 8.63 µM
same,Potency,[11],active: 68.6 µM
same,Potency,[10],"inconclusive: 68.6 µM [cytotoxic, single point]"
same,Potency,[9],"inconclusive: 77 µM [cytotoxic, single point]"
